This is one part of the list. Cleavage of a single-stranded DNA pool by Rep nickase domains was read by sequencing for 1 h at 37 °C with 3 µM enzyme; only the middle of the 90-letter strands is printed. A value is the log2 ratio of uncut reads to the pool without enzyme; the lower, the more was cut; hits are not called. The scaling is to total reads; uncut strands gain when others are lost, and binding without cutting may add a little.
Columns and labels:
Test in all cases: uncleaved DNA left, log2 of reads against the no-enzyme library (log2 ratio); higher = less cleavage (more negative = more Rep cleavage of the k-mer); sequences stand for … in CTCGTCCG…ACCGGAGA
[1] = test system: T1, Rep nickase domain of Muscovy duck circovirus
T1 sequence (Rep 1-111, printed without the tag): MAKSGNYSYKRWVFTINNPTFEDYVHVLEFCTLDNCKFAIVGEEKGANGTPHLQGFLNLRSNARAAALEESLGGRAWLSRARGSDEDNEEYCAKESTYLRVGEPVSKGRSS
Protocol: (§1)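 A pool of 90-nt single-stranded DNAs with seven random bases just before the constant AC of the nick site (name = the seven bases) was cut by 3 µM recombinant His6-SUMO-tagged Rep nickase domain (300 nM DNA, 50 mM HEPES pH 8.0, 50 mM NaCl, 1 mM MnCl2, 1 h, 37 °C, three replicates). Uncut DNA was amplified and sequenced.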

[2] = test system: T2, Rep nickase domain of banana bunchy top virus
T2 sequence (Rep 1-94, printed without the tag): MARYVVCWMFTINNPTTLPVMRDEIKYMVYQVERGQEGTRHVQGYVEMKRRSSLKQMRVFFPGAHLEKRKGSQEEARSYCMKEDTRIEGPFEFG
Protocol: as §1

[3] = test system: T3, Rep nickase domain of cabbage leaf curl virus
T3 sequence (Rep 1-116, printed without the tag): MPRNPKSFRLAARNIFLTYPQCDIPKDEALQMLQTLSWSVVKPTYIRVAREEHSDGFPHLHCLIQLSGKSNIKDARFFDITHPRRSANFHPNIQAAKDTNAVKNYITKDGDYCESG
Protocol: as §1

[4] = test system: T4, Rep nickase domain of chickpea chlorotic dwarf virus
T4 sequence (Rep 1-124, printed without the tag): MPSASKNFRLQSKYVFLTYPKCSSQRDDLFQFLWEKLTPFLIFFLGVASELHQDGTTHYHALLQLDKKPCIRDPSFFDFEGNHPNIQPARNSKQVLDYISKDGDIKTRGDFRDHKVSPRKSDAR
Protocol: as §1

[5] = test system: T5, Rep nickase domain of faba bean necrotic yellows virus
T5 sequence (Rep 1-98, printed without the tag): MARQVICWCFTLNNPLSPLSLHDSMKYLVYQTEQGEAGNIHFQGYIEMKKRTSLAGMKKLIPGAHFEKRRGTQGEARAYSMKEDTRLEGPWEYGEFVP
Protocol: as §1

[6] = test system: T6, Rep nickase domain of maize striate mosaic virus
T6 sequence (Rep 1-117, printed without the tag): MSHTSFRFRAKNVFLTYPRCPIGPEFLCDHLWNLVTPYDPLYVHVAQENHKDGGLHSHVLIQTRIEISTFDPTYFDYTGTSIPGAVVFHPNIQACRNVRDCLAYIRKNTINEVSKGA
Protocol: as §1

[7] = test system: T7, Rep nickase domain of porcine circovirus 2
T7 sequence (Rep 2-116, printed without the tag): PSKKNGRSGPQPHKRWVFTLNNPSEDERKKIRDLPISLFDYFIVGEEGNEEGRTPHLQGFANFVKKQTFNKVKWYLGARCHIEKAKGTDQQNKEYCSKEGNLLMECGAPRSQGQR
Protocol: as §1

[8] = test system: T8, Rep nickase domain of tomato golden mosaic virus
T8 sequence (Rep 1-124, printed without the tag): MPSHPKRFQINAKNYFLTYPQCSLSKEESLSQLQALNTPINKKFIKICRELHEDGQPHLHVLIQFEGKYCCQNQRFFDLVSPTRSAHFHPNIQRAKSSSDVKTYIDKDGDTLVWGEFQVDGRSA
Protocol: as §1

[9] = test system: T9, Rep nickase domain of tomato yellow leaf curl virus
T9 sequence (Rep 1-136, printed without the tag): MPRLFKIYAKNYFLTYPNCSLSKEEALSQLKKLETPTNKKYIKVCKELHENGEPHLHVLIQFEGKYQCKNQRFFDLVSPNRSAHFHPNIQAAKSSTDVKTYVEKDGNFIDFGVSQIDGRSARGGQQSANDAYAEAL
Protocol: as §1

[10] = test system: T10, Rep nickase domain of wheat dwarf virus
T10 sequence (Rep 1-137, printed without the tag): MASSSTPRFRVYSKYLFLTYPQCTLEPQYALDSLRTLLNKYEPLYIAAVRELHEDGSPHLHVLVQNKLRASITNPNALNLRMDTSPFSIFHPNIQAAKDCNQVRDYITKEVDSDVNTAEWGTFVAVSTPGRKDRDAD
Protocol: as §1

Row | Sequence | uncleaved DNA left (log2) [1] | uncleaved DNA left (log2) [2] | uncleaved DNA left (log2) [3] | uncleaved DNA left (log2) [4] | uncleaved DNA left (log2) [5] | uncleaved DNA left (log2) [6] | uncleaved DNA left (log2) [7] | uncleaved DNA left (log2) [8] | uncleaved DNA left (log2) [9] | uncleaved DNA left (log2) [10]
1 | TGTCTTT | -0.0265 | -0.0697 | 0.024 | -1.2 | -0.0513 | 0.236 | -0.474 | -0.123 | 0.00594 | -0.115
2 | GGGAGAA | -0.02 | 0.0945 | 0.845 | 2.07 | -0.0148 | 2.22 | 0.162 | 0.125 | -0.0548 | 0.0766
3 | CCAGCCT | -0.176 | -0.16 | -0.405 | -2.23 | -0.121 | -0.63 | -0.184 | -0.192 | -0.21 | -0.289
4 | TTACCGA | -0.0132 | -0.0187 | -0.336 | -1.76 | 0.113 | -0.928 | -0.27 | 0.00664 | 0.00942 | -0.00687
5 | GATGGCT | 0.139 | 0.0103 | 0.047 | 0.0697 | -0.0151 | 0.0391 | 0.112 | 0.0455 | 0.0253 | -0.0442
6 | GAAAGTT | 0.0483 | -0.0869 | -1.89 | -2.27 | -0.0292 | 0.412 | -1.01 | -0.183 | 0.0141 | -0.582
7 | CAATGAA | -0.0151 | -0.103 | -0.383 | -0.892 | 0.0822 | -0.911 | -0.942 | -0.0289 | 0.0708 | -0.0693
8 | TAGTAGT | -3.71 | -3.4 | -3.02 | -2.63 | -3.27 | -1.53 | -4.41 | -1.02 | 0.0236 | -0.731
9 | GAGGTCT | -0.0508 | 0.0158 | 0.595 | -0.0619 | 0.0175 | 1.88 | -0.943 | 0.0511 | 0.0165 | 0.0594
10 | GCTCGAT | 0.113 | 0.0496 | 0.0947 | 0.728 | 0.041 | 0.633 | 0.0868 | -0.0666 | 0.016 | -0.0432
11 | GGGCTTT | 0.114 | 0.0633 | 0.878 | 1.89 | 0.0694 | 2.28 | 0.148 | -0.0541 | 0.0986 | 0.298
12 | CTCGCAA | 0.122 | 0.0423 | -0.0607 | -0.312 | 0.0291 | -0.85 | 0.0969 | 0.0778 | 0.101 | 0.0205
13 | CTGTTGG | 0.0517 | 0.0731 | -0.415 | -0.383 | 0.0269 | -1.11 | 0.111 | 0.0499 | -0.109 | -0.162
14 | AGGATAG | 0.102 | 0.0885 | -0.147 | 0.141 | 0.00193 | -0.665 | 0.285 | 0.11 | 0.0833 | 0.0818
15 | TTGAAAA | 0.0868 | 0.177 | 0.375 | 0.849 | 0.12 | 0.616 | 0.184 | 0.294 | 0.215 | 0.276
16 | CTCGCGA | 0.0454 | -0.0627 | -0.591 | -0.496 | -0.163 | -0.721 | 0.102 | -0.205 | 0.00928 | -0.249
17 | AATCTAT | 0.0484 | 0.032 | 0.136 | -1.29 | 0.0535 | -0.163 | -0.707 | 0.165 | 0.106 | 0.227
18 | CCCCGTA | 0.0293 | 0.117 | 0.106 | -0.756 | -0.137 | -0.44 | -0.133 | 0.256 | 0.148 | 0.0772
19 | TGTTGGT | -0.853 | -0.0195 | 0.0732 | -0.0545 | -0.0252 | -0.26 | -1.06 | -0.09 | 0.0944 | -0.0738
20 | AACTACC | -0.0821 | -0.118 | -0.245 | -2.44 | -0.021 | -0.469 | -1.52 | -0.0217 | -0.0364 | -0.00908
21 | TACGTCT | 0.037 | 0.0213 | -1.82 | -3.09 | 0.0866 | -0.787 | -0.663 | -0.106 | 0.0601 | -0.27
22 | TGCCGTC | -0.0179 | -0.184 | -0.0274 | -0.252 | -0.167 | -0.489 | -0.128 | -0.192 | -0.175 | -0.244
23 | TCCGGTC | -0.0629 | -0.136 | 0.201 | 0.362 | 0.0033 | 0.611 | -0.0557 | -0.105 | -0.0643 | -0.12
24 | TGTGGCA | 0.154 | 0.0665 | 0.368 | 0.682 | 0.176 | 0.741 | 0.138 | 0.112 | 0.121 | 0.0729
25 | TCTGGGT | -0.104 | -0.0755 | 0.0517 | 0.781 | -0.203 | 1.07 | 0.0737 | -0.16 | -0.153 | -0.188
26 | TACCGAT | 0.00295 | -0.13 | -0.211 | -1.1 | -0.0143 | -0.0579 | -0.954 | -0.0484 | -0.0815 | -0.027
27 | AAAGCCA | -0.091 | -0.0699 | -0.195 | -1.61 | -0.0822 | -0.429 | -0.023 | 0.00547 | -0.0901 | -0.0596
28 | AGTTATA | -0.0393 | -0.0296 | -0.0137 | -0.867 | -9.22e-05 | 0.0806 | -0.806 | 0.0273 | -0.0981 | 0.0783
29 | TTGTGGG | 0.0541 | -0.0611 | -0.305 | -0.472 | 0.0405 | -0.761 | 0.00913 | 0.0544 | 0.0373 | -0.144
30 | CGAAGTG | -0.153 | -0.00896 | -0.353 | 0.104 | -0.0491 | -0.0705 | 0.00161 | -0.0919 | -0.104 | -0.132
